Measured values published in US5620958A, “Bradykinin antagonists” (Coretech, Inc., priority 1994, dated 1997).
Part of at least one peptide drawing is inferred or uncertain, most often the ends. Numbered stars: 1 amine (or outer) side, 2 acyl side, 3 side chain; on linkers, the order of the positions; unused ones are H or OH. Bridge positions count the residues as written; N and C are the ends. Square brackets hold non-standard residues; d marks the D form. Peptide text beside a SMILES is read from it. I, II: the chains in the order shown. BMH = O=C1CC([*:1])C(=O)N1CCCCCCN1C(=O)CC([*:2])C1=O; Oic = O=C(O)[C@@H]1C[C@@H]2CCCC[C@@H]2N1; Hyp = O=C(O)[C@@H]1C[C@@H](O)CN1; dTic = O=C(O)[C@H]1Cc2ccccc2CN1

What was measured:
[1] = target: T1, BK2 receptor (Rattus norvegicus, UniProt P25023); settings: for pA2 (UTERUS): Table D, effect of linker length
T1 sequence (P25023 1-396): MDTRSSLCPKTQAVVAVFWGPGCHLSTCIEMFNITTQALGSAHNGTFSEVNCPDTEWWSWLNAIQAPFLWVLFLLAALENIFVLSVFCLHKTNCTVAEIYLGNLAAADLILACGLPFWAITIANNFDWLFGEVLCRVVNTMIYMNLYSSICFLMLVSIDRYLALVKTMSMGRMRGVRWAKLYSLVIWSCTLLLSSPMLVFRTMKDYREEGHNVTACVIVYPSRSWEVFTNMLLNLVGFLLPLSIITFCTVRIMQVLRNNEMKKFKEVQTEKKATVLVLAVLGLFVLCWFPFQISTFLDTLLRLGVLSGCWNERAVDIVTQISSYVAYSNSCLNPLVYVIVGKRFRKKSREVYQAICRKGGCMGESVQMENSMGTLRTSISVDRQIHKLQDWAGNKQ

[2] = target: T2, BK2 receptor (Cavia porcellus, UniProt O70526); test: guinea-pig ileum (GPI) in vitro, antagonism of BK; format: cell-based; settings: Table E
T2 construct: tested for activity on guinea pig ileum in vitro on the standard tissue bath/strain gauge system; from tissue; host or cells: guinea pig ileum
T2 sequence (O70526 1-372): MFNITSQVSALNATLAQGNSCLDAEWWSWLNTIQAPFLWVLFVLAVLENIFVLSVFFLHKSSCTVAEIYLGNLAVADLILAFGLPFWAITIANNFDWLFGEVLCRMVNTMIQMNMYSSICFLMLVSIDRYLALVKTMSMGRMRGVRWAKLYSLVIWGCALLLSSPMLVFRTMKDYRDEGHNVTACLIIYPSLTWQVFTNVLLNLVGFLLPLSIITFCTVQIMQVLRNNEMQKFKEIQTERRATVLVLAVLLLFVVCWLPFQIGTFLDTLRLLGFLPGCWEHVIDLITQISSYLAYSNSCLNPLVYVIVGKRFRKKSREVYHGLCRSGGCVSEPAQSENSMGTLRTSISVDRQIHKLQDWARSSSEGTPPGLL
Experimental: Thus, in vitro studies were performed on standard assay systems, namely, guinea-pig ileum (GPI), rat uterus (RU) and rabbit jugular vein (RJV). […] The potency of each compound was assessed as a pA2 value according to the method of Arunlakshana & Schild, Br. J. Pharmacol. Chemother., 1.4:48-58 (1959). The pA2 can be defined as the negative logarithm of the molar concentration of the antagonist in the presence of which the potency of the agonist is reduced two-fold, i.e., twice the amount of agonist is required to produce a given response in the presence of, than in the absence of, the antagonist. A high potency of antagonism is indicated by a high pA2 value, i.e., a low concentration of antagonist is effective.
The percentage recovery (% Rec) was also determined for compounds with respect to each assay.
The various compounds identified in Table B below were prepared following the procedure of Example 1 with the Cys moiety introduced into the parent CP-0088 at the position indicated followed by reaction between the sulfhydryl group of the Cys residue and BMH to provide dimers as indicated. The Cys-modified monomers and the resultant dimers were tested for activity on guinea pig ileum in vitro on the standard tissue bath/strain gauge system as before.

[3] = Table C, rat uterus, P.A. = partial antagonist

Q: For CC(C)C[C@H](NC(=O)[C@@H](Cc1ccccc1)NC(=O)[C@H](CO)NC(=O)[C@H](Cc1ccccc1)NC(=O)CNC(=O)[C@H](CS)NC(=O)[C@@H]1CCCN1C(=O)[C@H](CCCNC(=N)N)NC(=O)[C@H](N)CCCNC(=N)N)C(=O)N[C@@H](CCCNC(=N)N)C(=O)O [CP-0143] (HELM PEPTIDE1{[dR].R.P.C.G.F.S.[dF].L.R}$$$$V2.0), which “pA2 MONOMER” value [1, 3] is on record?
A: Its value is “P.A”.

Q: CC(C)C[C@H](NC(=O)[C@@H](Cc1ccccc1)NC(=O)[C@H](CO)NC(=O)[C@H](Cc1ccccc1)NC(=O)CNC(=O)[C@@H]1C[C@@H](O)CN1C(=O)[C@H](CSC1CC(=O)N(CCCCCCN2C(=O)CC(SC[C@H](NC(=O)[C@H](CCCNC(=N)N)NC(=O)[C@H](N)CCCNC(=N)N)C(=O)N3C[C@H](O)C[C@H]3C(=O)NCC(=O)N[C@@H](Cc3ccccc3)C(=O)N[C@@H](CO)C(=O)N[C@H](Cc3ccccc3)C(=O)N[C@@H](CC(C)C)C(=O)N[C@@H](CCCNC(=N)N)C(=O)O)C2=O)C1=O)NC(=O)[C@H](CCCNC(=N)N)NC(=O)[C@H](N)CCCNC(=N)N)C(=O)N[C@@H](CCCNC(=N)N)C(=O)O (stereo partly drawn) [CP-0154] (HELM PEPTIDE1{[dR].R.C.[Hyp].G.F.S.[dF].L.R}|PEPTIDE2{[dR].R.C.[Hyp].G.F.S.[dF].L.R}|CHEM1{[O=C1CC([*:1])C(=O)N1CCCCCCN1C(=O)CC([*:2])C1=O]}$PEPTIDE1,CHEM1,3:R3-1:R1|PEPTIDE2,CHEM1,3:R3-1:R2$$$V2.0) was tested. Which “pA2 DIMER” value [1, 3] did it give?
A: The value was “P.A”.

Q: How did the “pA2 DIMER” value [1, 3] turn out when CC(C)C[C@H](NC(=O)[C@@H](Cc1ccccc1)NC(=O)[C@H](CO)NC(=O)[C@H](CSC1CC(=O)N(CCCCCCN2C(=O)CC(SC[C@H](NC(=O)CNC(=O)[C@@H]3C[C@@H](O)CN3C(=O)[C@@H]3CCCN3C(=O)[C@H](CCCNC(=N)N)NC(=O)[C@H](N)CCCNC(=N)N)C(=O)N[C@@H](CO)C(=O)N[C@H](Cc3ccccc3)C(=O)N[C@@H](CC(C)C)C(=O)N[C@@H](CCCNC(=N)N)C(=O)O)C2=O)C1=O)NC(=O)CNC(=O)[C@@H]1C[C@@H](O)CN1C(=O)[C@@H]1CCCN1C(=O)[C@H](CCCNC(=N)N)NC(=O)[C@H](N)CCCNC(=N)N)C(=O)N[C@@H](CCCNC(=N)N)C(=O)O (stereo partly drawn) [CP-0156] (HELM PEPTIDE1{[dR].R.P.[Hyp].G.C.S.[dF].L.R}|PEPTIDE2{[dR].R.P.[Hyp].G.C.S.[dF].L.R}|CHEM1{[O=C1CC([*:1])C(=O)N1CCCCCCN1C(=O)CC([*:2])C1=O]}$PEPTIDE1,CHEM1,6:R3-1:R1|PEPTIDE2,CHEM1,6:R3-1:R2$$$V2.0) was run?
A: Its value is 8.1 ± 0.1.

Q: How did the “pA2 DIMER” value [1, 3] turn out when CC(C)C[C@H](NC(=O)[C@@H](Cc1ccccc1)NC(=O)[C@H](CO)NC(=O)[C@H](Cc1ccccc1)NC(=O)CNC(=O)[C@@H]1C[C@@H](O)CN1C(=O)[C@@H]1CCCN1C(=O)[C@H](CCCNC(=N)N)NC(=O)[C@H](N)CSC1CC(=O)N(CCCCCCN2C(=O)CC(SC[C@@H](N)C(=O)N[C@@H](CCCNC(=N)N)C(=O)N3CCC[C@H]3C(=O)N3C[C@H](O)C[C@H]3C(=O)NCC(=O)N[C@@H](Cc3ccccc3)C(=O)N[C@@H](CO)C(=O)N[C@H](Cc3ccccc3)C(=O)N[C@@H](CC(C)C)C(=O)N[C@@H](CCCNC(=N)N)C(=O)O)C2=O)C1=O)C(=O)N[C@@H](CCCNC(=N)N)C(=O)O (stereo partly drawn) [CP-0161] (HELM PEPTIDE1{[dC].R.P.[Hyp].G.F.S.[dF].L.R}|PEPTIDE2{[dC].R.P.[Hyp].G.F.S.[dF].L.R}|CHEM1{[O=C1CC([*:1])C(=O)N1CCCCCCN1C(=O)CC([*:2])C1=O]}$PEPTIDE1,CHEM1,1:R3-1:R1|PEPTIDE2,CHEM1,1:R3-1:R2$$$V2.0) was run?
A: The value was 6.5.

Q: How did the “GPI pA2” value [2] turn out when CC(C)C[C@H](NC(=O)[C@@H](Cc1ccccc1)NC(=O)[C@H](CSC1CC(=O)N(CCCC(=O)NCCN(CCNC(=O)CCCN2C(=O)CC(SC[C@H](NC(=O)[C@H](Cc3ccccc3)NC(=O)CNC(=O)[C@@H]3C[C@@H](O)CN3C(=O)[C@@H]3CCCN3C(=O)[C@H](CCCNC(=N)N)NC(=O)[C@H](N)CCCNC(=N)N)C(=O)N[C@H](Cc3ccccc3)C(=O)N[C@@H](CC(C)C)C(=O)N[C@@H](CCCNC(=N)N)C(=O)O)C2=O)CCNC(=O)CCCN2C(=O)CC(SC[C@H](NC(=O)[C@H](Cc3ccccc3)NC(=O)CNC(=O)[C@@H]3C[C@@H](O)CN3C(=O)[C@@H]3CCCN3C(=O)[C@H](CCCNC(=N)N)NC(=O)[C@H](N)CCCNC(=N)N)C(=O)N[C@H](Cc3ccccc3)C(=O)N[C@@H](CC(C)C)C(=O)N[C@@H](CCCNC(=N)N)C(=O)O)C2=O)C1=O)NC(=O)[C@H](Cc1ccccc1)NC(=O)CNC(=O)[C@@H]1C[C@@H](O)CN1C(=O)[C@@H]1CCCN1C(=O)[C@H](CCCNC(=N)N)NC(=O)[C@H](N)CCCNC(=N)N)C(=O)N[C@@H](CCCNC(=N)N)C(=O)O (stereo partly drawn) [CP-0164] (HELM PEPTIDE1{[dR].R.P.[Hyp].G.F.C.[dF].L.R}|PEPTIDE2{[dR].R.P.[Hyp].G.F.C.[dF].L.R}|PEPTIDE3{[dR].R.P.[Hyp].G.F.C.[dF].L.R}|CHEM1{[O=C(CCCN1C(=O)CC([*:1])C1=O)NCCN(CCNC(=O)CCCN1C(=O)CC([*:2])C1=O)CCNC(=O)CCCN1C(=O)CC([*:3])C1=O]}$PEPTIDE1,CHEM1,7:R3-1:R1|PEPTIDE2,CHEM1,7:R3-1:R2|PEPTIDE3,CHEM1,7:R3-1:R3$$$V2.0) was run?
A: Its value is 7.5.

Q: With CC(C)C[C@H](NC(=O)[C@@H](Cc1ccccc1)NC(=O)[C@H](CSC1CC(=O)N(CCCCCCCCCCCCN2C(=O)CC(SC[C@H](NC(=O)[C@H](Cc3ccccc3)NC(=O)CNC(=O)[C@@H]3C[C@@H](O)CN3C(=O)[C@@H]3CCCN3C(=O)[C@H](CCCNC(=N)N)NC(=O)[C@H](N)CCCNC(=N)N)C(=O)N[C@H](Cc3ccccc3)C(=O)N[C@@H](CC(C)C)C(=O)N[C@@H](CCCNC(=N)N)C(=O)O)C2=O)C1=O)NC(=O)[C@H](Cc1ccccc1)NC(=O)CNC(=O)[C@@H]1C[C@@H](O)CN1C(=O)[C@@H]1CCCN1C(=O)[C@H](CCCNC(=N)N)NC(=O)[C@H](N)CCCNC(=N)N)C(=O)N[C@@H](CCCNC(=N)N)C(=O)O (stereo partly drawn) [CP-0166] (HELM PEPTIDE1{[dR].R.P.[Hyp].G.F.C.[dF].L.R}|PEPTIDE2{[dR].R.P.[Hyp].G.F.C.[dF].L.R}|CHEM1{[O=C1CC([*:1])C(=O)N1CCCCCCCCCCCCN1C(=O)CC([*:2])C1=O]}$PEPTIDE1,CHEM1,7:R3-1:R1|PEPTIDE2,CHEM1,7:R3-1:R2$$$V2.0) as the compound, how does the “reversibility at 80 minutes” value ([1]; Table D footnote, 80 minutes) read?
A: Its value is “IRREVERSIBLE”.

Q: And the “pA2 (UTERUS)” value [1]?
A: Its value is 8.2 ± 0.3.

Q: CC(C)C[C@H](NC(=O)[C@@H](Cc1ccccc1)NC(=O)[C@H](CSC1CC(=O)N(CCCN2C(=O)CC(SC[C@H](NC(=O)[C@H](Cc3ccccc3)NC(=O)CNC(=O)[C@@H]3C[C@@H](O)CN3C(=O)[C@@H]3CCCN3C(=O)[C@H](CCCNC(=N)N)NC(=O)[C@H](N)CCCNC(=N)N)C(=O)N[C@H](Cc3ccccc3)C(=O)N[C@@H](CC(C)C)C(=O)N[C@@H](CCCNC(=N)N)C(=O)O)C2=O)C1=O)NC(=O)[C@H](Cc1ccccc1)NC(=O)CNC(=O)[C@@H]1C[C@@H](O)CN1C(=O)[C@@H]1CCCN1C(=O)[C@H](CCCNC(=N)N)NC(=O)[C@H](N)CCCNC(=N)N)C(=O)N[C@@H](CCCNC(=N)N)C(=O)O (stereo partly drawn) [CP-0172] (HELM PEPTIDE1{[dR].R.P.[Hyp].G.F.C.[dF].L.R}|PEPTIDE2{[dR].R.P.[Hyp].G.F.C.[dF].L.R}|CHEM1{[O=C1CC([*:1])C(=O)N1CCCN1C(=O)CC([*:2])C1=O]}$PEPTIDE1,CHEM1,7:R3-1:R1|PEPTIDE2,CHEM1,7:R3-1:R2$$$V2.0) was tested. Which “pA2 (UTERUS)” value [1] did it give?
A: The value was 8.6 ± 0.2.

Q: N=C(N)NCCC[C@@H](N)C(=O)N[C@@H](CCCNC(=N)N)C(=O)N1CCC[C@H]1C(=O)N1C[C@H](O)C[C@H]1C(=O)NCC(=O)N[C@@H](Cc1ccccc1)C(=O)N[C@@H](CSC1CC(=O)N(CCCCCCN2C(=O)CC(SC[C@H](NC(=O)[C@H](Cc3ccccc3)NC(=O)CNC(=O)[C@@H]3C[C@@H](O)CN3C(=O)[C@@H]3CCCN3C(=O)[C@H](CCCNC(=N)N)NC(=O)[C@H](N)CCCNC(=N)N)C(=O)N3Cc4ccccc4C[C@@H]3C(=O)N3[C@H](C(=O)N[C@@H](CCCNC(=N)N)C(=O)O)C[C@@H]4CCCC[C@@H]43)C2=O)C1=O)C(=O)N1Cc2ccccc2C[C@@H]1C(=O)N1[C@H](C(=O)O)C[C@@H]2CCCC[C@@H]21 (stereo partly drawn) [CP-0291] (I: H-[dR]RP[Hyp]GFC[dTic][Oic]R-OH / II: H-[dR]RP[Hyp]GFC[dTic][Oic]-OH; linker I:7-II:7 via BMH) was tested. Which “BK2 RAT UTERUS pA2” value ([1]; Table G) did it give?
A: The value was 8.0 ± 0.2.
